The text below walks through data of publication PMC9911399, “Two distinct binding modes provide the RNA-binding protein RbFox with extraordinary sequence specificity”.

To fix the notation:
B1: CAAUGAA (DNA:RNA)
RNA: GGGAGACCGGAAUUCAGAUUGUCCCAAUGAAUUAAAUCCCGUCGUAGCCACCA
DNA 1: CAATCTGAATTCCGGTCTCCC
DNA 2: TGGTGGCTACGACGGGATT
B2: CCUAGAA (DNA:RNA)
RNA: B1 RNA with A26C, A27U, U28A
DNA 1: CAATCTGAATTCCGGTCTCCC
DNA 2: TGGTGGCTACGACGGGATT
B3: GGCGUAU (DNA:RNA)
RNA: B1 RNA with C25G, A26G, A27C, U28G, G29U, A31U
DNA 1: CAATCTGAATTCCGGTCTCCC
DNA 2: TGGTGGCTACGACGGGATT
B4: GUUCUGU (DNA:RNA)
RNA: GGGAGACCGGAAUUCAGAUUGUCCGUUCUGUUUAAAUCCCGUCGUAGCCACCA
DNA 1: CAATCTGAATTCCGGTCTCCC
DNA 2: TGGTGGCTACGACGGGATT
B5: CCACGAG (DNA:RNA)
RNA: B1 RNA with A26C, U28C, A31G
DNA 1: CAATCTGAATTCCGGTCTCCC
DNA 2: TGGTGGCTACGACGGGATT
B6: CUCCAUG (DNA:RNA)
RNA: B4 RNA with G25C, U27C, U29A, G30U, U31G
DNA 1: CAATCTGAATTCCGGTCTCCC
DNA 2: TGGTGGCTACGACGGGATT
B7: AGUGUGG (DNA:RNA)
RNA: B4 RNA with G25A, U26G, C28G, U31G
DNA 1: CAATCTGAATTCCGGTCTCCC
DNA 2: TGGTGGCTACGACGGGATT
B8: UGCAAUU (DNA:RNA)
RNA: B4 RNA with G25U, U26G, U27C, C28A, U29A, G30U
DNA 1: CAATCTGAATTCCGGTCTCCC
DNA 2: TGGTGGCTACGACGGGATT
B9: GUUGGUG (DNA:RNA)
RNA: B4 RNA with C28G, U29G, G30U, U31G
DNA 1: CAATCTGAATTCCGGTCTCCC
DNA 2: TGGTGGCTACGACGGGATT
B10: UCCGUCC (DNA:RNA)
RNA: B4 RNA with G25U, U26C, U27C, C28G, G30C, U31C
DNA 1: CAATCTGAATTCCGGTCTCCC
DNA 2: TGGTGGCTACGACGGGATT
B11: UAUAACA (DNA:RNA)
RNA: B1 RNA with C25U, A27U, U28A, G29A, A30C
DNA 1: CAATCTGAATTCCGGTCTCCC
DNA 2: TGGTGGCTACGACGGGATT
B12: AUAACAC (DNA:RNA)
RNA: B1 RNA with C25A, A26U, U28A, G29C, A31C
DNA 1: CAATCTGAATTCCGGTCTCCC
DNA 2: TGGTGGCTACGACGGGATT
B13: CAUAAUU (DNA:RNA)
RNA: B1 RNA with A27U, U28A, G29A, A30U, A31U
DNA 1: CAATCTGAATTCCGGTCTCCC
DNA 2: TGGTGGCTACGACGGGATT
B14: AGCCUUC (DNA:RNA)
RNA: B4 RNA with G25A, U26G, U27C, G30U, U31C
DNA 1: CAATCTGAATTCCGGTCTCCC
DNA 2: TGGTGGCTACGACGGGATT
B15: ACGCACA (DNA:RNA)
RNA: B1 RNA with C25A, A26C, A27G, U28C, G29A, A30C
DNA 1: CAATCTGAATTCCGGTCTCCC
DNA 2: TGGTGGCTACGACGGGATT
B16: UCAUUCG (DNA:RNA)
RNA: B1 RNA with C25U, A26C, G29U, A30C, A31G
DNA 1: CAATCTGAATTCCGGTCTCCC
DNA 2: TGGTGGCTACGACGGGATT
B17: CUCAUAG (DNA:RNA)
RNA: B1 RNA with A26U, A27C, U28A, G29U, A31G
DNA 1: CAATCTGAATTCCGGTCTCCC
DNA 2: TGGTGGCTACGACGGGATT
B18: AUCGAUC (DNA:RNA)
RNA: B4 RNA with G25A, U27C, C28G, U29A, G30U, U31C
DNA 1: CAATCTGAATTCCGGTCTCCC
DNA 2: TGGTGGCTACGACGGGATT
B19: AGUAGAC (DNA:RNA)
RNA: B1 RNA with C25A, A26G, A27U, U28A, A31C
DNA 1: CAATCTGAATTCCGGTCTCCC
DNA 2: TGGTGGCTACGACGGGATT
B20: AUUCCAU (DNA:RNA)
RNA: B4 RNA with G25A, U29C, G30A
DNA 1: CAATCTGAATTCCGGTCTCCC
DNA 2: TGGTGGCTACGACGGGATT
B21: GACGCAG (DNA:RNA)
RNA: B1 RNA with C25G, A27C, U28G, G29C, A31G
DNA 1: CAATCTGAATTCCGGTCTCCC
DNA 2: TGGTGGCTACGACGGGATT
B22: GGAGCUA (DNA:RNA)
RNA: B1 RNA with C25G, A26G, U28G, G29C, A30U
DNA 1: CAATCTGAATTCCGGTCTCCC
DNA 2: TGGTGGCTACGACGGGATT
B23: GAACAUG (DNA:RNA)
RNA: B1 RNA with C25G, U28C, G29A, A30U, A31G
DNA 1: CAATCTGAATTCCGGTCTCCC
DNA 2: TGGTGGCTACGACGGGATT
B24: ACGAGCA (DNA:RNA)
RNA: B1 RNA with C25A, A26C, A27G, U28A, A30C
DNA 1: CAATCTGAATTCCGGTCTCCC
DNA 2: TGGTGGCTACGACGGGATT
B25: CCGACAC (DNA:RNA)
RNA: B1 RNA with A26C, A27G, U28A, G29C, A31C
DNA 1: CAATCTGAATTCCGGTCTCCC
DNA 2: TGGTGGCTACGACGGGATT
B26: UAGAAGG (DNA:RNA)
RNA: B1 RNA with C25U, A27G, U28A, G29A, A30G, A31G
DNA 1: CAATCTGAATTCCGGTCTCCC
DNA 2: TGGTGGCTACGACGGGATT
B27: AAAACGU (DNA:RNA)
RNA: B1 RNA with C25A, U28A, G29C, A30G, A31U
DNA 1: CAATCTGAATTCCGGTCTCCC
DNA 2: TGGTGGCTACGACGGGATT
B28: CAGUUCG (DNA:RNA)
RNA: B1 RNA with A27G, G29U, A30C, A31G
DNA 1: CAATCTGAATTCCGGTCTCCC
DNA 2: TGGTGGCTACGACGGGATT
B29: CCUUGCG (DNA:RNA)
RNA: B1 RNA with A26C, A27U, A30C, A31G
DNA 1: CAATCTGAATTCCGGTCTCCC
DNA 2: TGGTGGCTACGACGGGATT
B30: GCUAUCG (DNA:RNA)
RNA: B4 RNA with U26C, C28A, G30C, U31G
DNA 1: CAATCTGAATTCCGGTCTCCC
DNA 2: TGGTGGCTACGACGGGATT
B31: ACAAGGG (DNA:RNA)
RNA: B1 RNA with C25A, A26C, U28A, A30G, A31G
DNA 1: CAATCTGAATTCCGGTCTCCC
DNA 2: TGGTGGCTACGACGGGATT

Positions count from the first letter of the chain named. This is one part of the list.

In this test the target is T1, RBFOX1 RRM (Homo sapiens, UniProt Q9NWB1 109-208).
T1 sequence: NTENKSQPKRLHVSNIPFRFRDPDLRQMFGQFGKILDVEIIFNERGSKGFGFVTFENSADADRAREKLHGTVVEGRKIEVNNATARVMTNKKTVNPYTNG
Nature of the test: EMSA; HiTS-Eq, 1 nM pool, 10 min; buffer printed only for the single-RNA assays: 10 mM Tris pH 7.5, 150 mM NaCl, 3.4 mM EDTA, 0.001% NP-40, 30 C. The settings on record: tags: His6 N-terminal (pET28a); label: 5' 32P. The method, boiled down:
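These values rest on relative association constants, computed from read-count changes of each RNA species versus the control reaction and normalised to the cognate motif. Reads came from free RNA recovered by 8% native PAGE after purified RbFox RRM (wild type or mutant) at increasing concentrations was equilibrated for 10 min in 50 µL with 1 nM of a 5′-radiolabelled pool with 7 randomized nucleotides and DNA-annealed flanks.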
Regarding B1, the binding signal was 0.00438 KA relative to UGCAUGU.

Consider B2, for which the binding signal is 0.00632 KA relative to UGCAUGU.

For the molecule B3, the binding signal is 0.00921 KA relative to UGCAUGU.

B4: the binding signal was 0.0229 KA relative to UGCAUGU.

As for B5, the binding signal was 0.00481 KA relative to UGCAUGU.

Consider B6, for which the binding signal was 0.00902 KA relative to UGCAUGU.

B7: the binding signal was 0.0145 KA relative to UGCAUGU.

Regarding B8, the binding signal was 0.00982 KA relative to UGCAUGU.

On to B9, for which the binding signal is 0.0258 KA relative to UGCAUGU.

Regarding B10, the binding signal was 0.00497 KA relative to UGCAUGU.

As to B11, the binding signal is 0.00681 KA relative to UGCAUGU.

In the case of B12, the binding signal was 0.00131 KA relative to UGCAUGU.

Regarding B13, the binding signal was 0.0023 KA relative to UGCAUGU.

In the case of B14, the binding signal was 0.00778 KA relative to UGCAUGU.

Consider B15, for which the binding signal is 0.00609 KA relative to UGCAUGU.

With B16, the binding signal was 0.00905 KA relative to UGCAUGU.

Take B17: the binding signal was 0.00247 KA relative to UGCAUGU.

With B18, the binding signal was 0.00475 KA relative to UGCAUGU.

As to B19, the binding signal was 0.00654 KA relative to UGCAUGU.

As to B20, the binding signal is 0.000205 KA relative to UGCAUGU.

For the molecule B21, the binding signal is 0.0181 KA relative to UGCAUGU.

On to B22, for which the binding signal is 0.0106 KA relative to UGCAUGU.

Turning to B23, the binding signal was 0.00915 KA relative to UGCAUGU.

B24: the binding signal was 0.0135 KA relative to UGCAUGU.

For B25, the binding signal was 0.00368 KA relative to UGCAUGU.

Take B26: the binding signal was 0.0079 KA relative to UGCAUGU.

As for B27, the binding signal is 0.000755 KA relative to UGCAUGU.

Take B28: the binding signal was 0.0101 KA relative to UGCAUGU.

Take B29: the binding signal is 0.0117 KA relative to UGCAUGU.

Consider B30, for which the binding signal is 0.0164 KA relative to UGCAUGU.

For B31, the binding signal was 0.00436 KA relative to UGCAUGU.
